{
  "source": "the RNAGym collection of RNA variant scans (doi:10.7554/elife.90254)",
  "parents": {"B1": {"name": "LINE1-mini (parent)", "chain": "GGCAGAGCUCAACACAGCGUGGCAAAGUGGCUGUGGCUAGACUGCC"}},
  "note": "The source gives no read counts; variants with many changes may rest on few reads.",
  "data": [
    {"variants_of": "B1", "assay": "self-cleavage, relative activity (ratio to wild type); higher = more cleavage; in vitro, sequencing; the parent is a self-cleaving ribozyme", "values": [
      {"variant": "GGCAGAGCUCAACACAGCACGGCAAAGUGGCUGUGGCUAGCCUGCC", "self-cleavage": 0.01},
      {"variant": "GGCAGAGCUCAACACAGUGUGGCAAAGGGACUGUGGCUAGACUGCC", "self-cleavage": 0.89},
      {"variant": "GGCAGAGCUCAACACAGCCUGGCAUAGUGGUUGUGGCUAGACGUCC", "self-cleavage": 0.18},
      {"variant": "GGCAGAGCUCAACACAGCCUGCCAAAGUGGCGGUGGCUAGACCGCC", "self-cleavage": 0},
      {"variant": "GGCAGAGCUCAACACAGCAUGGCUAGGUGGCUGUGGUGUGACGGUC", "self-cleavage": 0.05},
      {"variant": "GGCAGAGCUCAACACAGCAGGCCAGAGCGGAUGUGGCUAGACUGCC", "self-cleavage": 0.08},
      {"variant": "GGCAGAGCUCAACACAGCCUGGGAAAGUGGCGGUGGCGAGACUGCC", "self-cleavage": 0.01},
      {"variant": "GGCAGAGCUCAACACAGCAUGGCUCAUUGGCUGUGGCUAGACUGCC", "self-cleavage": 0.53},
      {"variant": "GGCAGAGCUCAACACAGCAUGGCAAAGUGGCUGUGGCCAGGCUGCC", "self-cleavage": 0.28},
      {"variant": "GGCAGAGCUCAACACAGCCUAGCAAAGCGGCUGAGGCUAGCCUGCC", "self-cleavage": 0.03},
      {"variant": "GGCAGAGCUCAACACAGUGUGGCAAAGUGGCUCUGGCUAGACUUCC", "self-cleavage": 0.02},
      {"variant": "GGCAGAGCUCAACACAGCAUGGCAAAGUGGCUGUGGAUAGACUGCA", "self-cleavage": 0.02},
      {"variant": "GGCAGAGCUCAACACAGCAUGGCAUAGUGACUGUGGCUAGACUGCC", "self-cleavage": 2.09},
      {"variant": "GGCAGAGCUCAACACAGCAUGACAAAGUGGCUGUGGCUAGACUGCA", "self-cleavage": 0.63},
      {"variant": "GGCAGAGCUCAACACAGCAUGGCAAAGUGGCUGCGUCUAGACUGCC", "self-cleavage": 0.13},
      {"variant": "GGCAGAGCUCAACACAGCAUGGCAAAGUGGCUGUAGGUAGACUGCC", "self-cleavage": 0.02},
      {"variant": "GGCAGAGCUCAACACAGUGUGGCAAAGUCGCUGUGCCUAGACUGCC", "self-cleavage": 0.2},
      {"variant": "GGCAGAGCUCAACACAGCAUGGCAUAGUGGCUGUGGCUAGACUGCG", "self-cleavage": 1.11},
      {"variant": "GGCAGAGCUCAACACAGCCUGGCAAAGUGGCUGUGGCUAGAAUGCG", "self-cleavage": 0},
      {"variant": "GGCAGAGCUCAACACAGCAUGGAAAGGAGACUGUGGCUAGAUUGCG", "self-cleavage": 0.08},
      {"variant": "GGCAGAGCUCAACACAGCACGCCAAAGGGGCUGUGGCUAGCCUGCC", "self-cleavage": 0},
      {"variant": "GGCAGAGCUCAACACAGCAUGCCAAAGUGGCCGUGGCUAGACUGCC", "self-cleavage": 0.13},
      {"variant": "GGCAGAGCUCAACACAGUGUGGCAAAUUGGCGGUGGCUAGAAUGCC", "self-cleavage": 0.03},
      {"variant": "GGCAGAGCUCAACACAGCAAGGCAAAGUGGCUGUGGCUAUACUGCC", "self-cleavage": 0.36},
      {"variant": "GGCAGAGCUCAACACAGCAUUGCAAAGUGGCUGUGGCAAGACUGCC", "self-cleavage": 0.22},
      {"variant": "GGCAGAGCUCAACACAGUGUGGCAAAGUGUCUGGGGCUAGACUGCC", "self-cleavage": 0.04},
      {"variant": "GGCAGAGCUCAACACAGCAUGGCAAUGUGGCUGUGGCUAGUCUGCC", "self-cleavage": 0.4},
      {"variant": "GGCAGAGCUCAACACAGUGUGGCAAAGUGGCGGUGGCUAGCCUGCA", "self-cleavage": 0.03},
      {"variant": "GGCAGAGCUCAACACAGCCUGACAAAGUGGCUGGGGCUAGACUGCC", "self-cleavage": 0.09},
      {"variant": "GGCAGAGCUCAACACAGUGUGUCAAAGUGGCUGUGGCUAGACUGAC", "self-cleavage": 0.38},
      {"variant": "GGCAGAGCUCAACACAGCCUGCCAAAGUGGCUGUGGUAAGACUCCC", "self-cleavage": 0},
      {"variant": "GGCAGAGCUCAACACAGUGUGGCAAAGUGCCUGUGGCUAGUCUACG", "self-cleavage": 0.01},
      {"variant": "GGCAGAGCUCAACACAGCAUGGCAAAUUGGCUGUGGCUAGACCGCC", "self-cleavage": 0.1},
      {"variant": "GGCAGAGCUCAACACAGCCUGGGAAAGGGGCUGUGGCUAGACUGCC", "self-cleavage": 0.18},
      {"variant": "GGCAGAGCUCAACACAGCCUGGCAGAGUCGGUGUGGCUUGACUGCC", "self-cleavage": 0.03},
      {"variant": "GGCAGAGCUCAACACAGCAUGGCAAAGUGAUUGUGGCUAGACCGCC", "self-cleavage": 0.04},
      {"variant": "GGCAGAGCUCAACACAGCAUGGUAAAGUGGCUGUGCAUAGACUGCC", "self-cleavage": 0.13},
      {"variant": "GGCAGAGCUCAACACAGCAUGGCAAAGAGGCUGUGGCUGGACUGCC", "self-cleavage": 0.1},
      {"variant": "GGCAGAGCUCAACACAGUGUGGCAAAGUGUCUGUGGCUACGCUGCC", "self-cleavage": 0.01},
      {"variant": "GGCAGAGCUCAACACAGUGUGGCAAAGUGGCUCUGGCUAGACUGAC", "self-cleavage": 0.02},
      {"variant": "GGCAGAGCUCAACACAGCCUGCCAAAGUAGCUGUGGCUAGACUGCC", "self-cleavage": 0.27},
      {"variant": "GGCAGAGCUCAACACAGCAUGGCAAAGUGGCUGUGCUUAGACUGCC", "self-cleavage": 0.02},
      {"variant": "GGCAGAGCUCAACACAGCAUGGAAAAGUGGCUGGGGCUAGACUGCC", "self-cleavage": 0.23},
      {"variant": "GGCAGAGCUCAACACAGCCUGGCAAUGUGGCUGUGACUAGACUGCC", "self-cleavage": 0.07},
      {"variant": "GGCAGAGCUCAACACAGCCUGGCAAAGUGGCUGUGGCUAGUCUACC", "self-cleavage": 0.16},
      {"variant": "GGCAGAGCUCAACACAGCAUGGCAAAGUGGGUGUGGCGAGACUGCC", "self-cleavage": 0.03},
      {"variant": "GGCAGAGCUCAACACAGCCUGGGAAAGUGGCUUUGGCUAGACUGCC", "self-cleavage": 0.09},
      {"variant": "GGCAGAGCUCAACACAGCAUGGCAAAGUGACUCUGGCUAGACUGUC", "self-cleavage": 0.02},
      {"variant": "GGCAGAGCUCAACACAGCCUGCUAAAGUGGCUGUGGCUAGACUGGC", "self-cleavage": 0.01},
      {"variant": "GGCAGAGCUCAACACAGCCUGACAAAGUGGCUGUGGAUAGACUGCC", "self-cleavage": 0.02},
      {"variant": "GGCAGAGCUCAACACAGCAUCGCAAAGUGGCUGUAGCUAGACUGCC", "self-cleavage": 0.18},
      {"variant": "GGCAGAGCUCAACACAGCAUGCCAAAGUGGCUGUGGCUAGACUGUC", "self-cleavage": 2.04},
      {"variant": "GGCAGAGCUCAACACAGUGUGGCAAAGCGGCUGUGGCUAGCCUGCC", "self-cleavage": 0.04},
      {"variant": "GGCAGAGCUCAACACAGCAUGGCAAAGUGUCUGUGGCAAGACUGCC", "self-cleavage": 1.27},
      {"variant": "GGCAGAGCUCAACACAGUGUGGCAAAGUGGCUGCGGCUAGAAUGCC", "self-cleavage": 0.06},
      {"variant": "GGCAGAGCUCAACACAGCAUGGCAAAGUUGGUGUGGCUAGACUGCC", "self-cleavage": 0.25}
    ]}
  ]
}
